The values that follow come from paper PMC12820563.

Some of the results follow. The list includes weakly bound sequences.

The target in this test is T1, MBP-FoxP3dN (UniProt Q99JB6).
T1 sequence: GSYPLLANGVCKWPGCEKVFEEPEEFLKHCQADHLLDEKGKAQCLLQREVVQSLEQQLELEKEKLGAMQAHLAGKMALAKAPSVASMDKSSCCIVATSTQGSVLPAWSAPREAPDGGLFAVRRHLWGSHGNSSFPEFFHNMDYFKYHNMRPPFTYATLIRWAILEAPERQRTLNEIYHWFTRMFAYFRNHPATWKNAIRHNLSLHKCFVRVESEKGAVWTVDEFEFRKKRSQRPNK
The experiment in a line: PD-seq (MBP pull-down with sequencing). Particulars: 20 mM Tris-HCl pH 7.5, 100 mM NaCl, 1.5 mM MgCl2, 0.4 uM protein, 0.1 uM dsDNA library, 30 min, room temperature, amylose pull-down; high values mean tight binding; double strand, one strand shown.
As to “GATGATTGTTCTCCCAGCTGATGAATTATCCTCGTCGAGTAAACAAATTTTCCTAATCTTTCTGTTCAAGCGCCATCTAC”, the binding signal (RPM ratio (pull-down/input)) was 0.292.

In the case of “GATGATTGTTCTCCCAGCTGATGAATTTACCCATTCGAGTAAACAAATTTTCCTAATCTTTCTGTTCAAGCGCCATCTAC”, the binding signal (RPM ratio (pull-down/input)) came to 0.478.

Regarding “GATGATTGTTCTCCCAGCTGATGAATTTTGCGATTCGAGTAAACAAATTTTCCTAATCTTTCTGTTCAAGCGCCATCTAC”, the binding signal (RPM ratio (pull-down/input)) was determined as 2.4. On to “GATGATTGTTCTCCCAGCTGATGAATTCCTTTTATCGAGTAAACAAATTTTCCTAATCTTTCTGTTCAAGCGCCATCTAC”, for which the binding signal (RPM ratio (pull-down/input)) stood at 0.345. For “GATGATTGTTCTCCCAGCTGATGAATTTAACATATCGAGTAAACAAATTTTCCTAATCTTTCTGTTCAAGCGCCATCTAC”, the binding signal (RPM ratio (pull-down/input)) is 0.555. To “GATGATTGTTCTCCCAGCTGATGAATTTTGCACCTCGAGTAAACAAATTTTCCTAATCTTTCTGTTCAAGCGCCATCTAC” belongs 2.8. Take “GATGATTGTTCTCCCAGCTGATGAATTTATTCCGTCGAGTAAACAAATTTTCCTAATCTTTCTGTTCAAGCGCCATCTAC”: the binding signal (RPM ratio (pull-down/input)) amounted to 0.546. To “GATGATTGTTCTCCCAGCTGATGAATTAACCAAATCGAGTAAACAAATTTTCCTAATCTTTCTGTTCAAGCGCCATCTAC” belongs 0.187; to “GATGATTGTTCTCCCAGCTGATGAATTGCAACTGTCGAGTAAACAAATTTTCCTAATCTTTCTGTTCAAGCGCCATCTAC”, 2.99; to “GATGATTGTTCTCCCAGCTGATGAATTGTTGCTTTCGAGTAAACAAATTTTCCTAATCTTTCTGTTCAAGCGCCATCTAC”, 3.26. With “GATGATTGTTCTCCCAGCTGATGAATTACGGAGTTCGAGTAAACAAATTTTCCTAATCTTTCTGTTCAAGCGCCATCTAC”, the binding signal (RPM ratio (pull-down/input)) was 0.478. The value for “GATGATTGTTCTCCCAGCTGATGAATTCCCACACTCGAGTAAACAAATTTTCCTAATCTTTCTGTTCAAGCGCCATCTAC” was 0.312; that for “GATGATTGTTCTCCCAGCTGATGAATTTTGAGATTCGAGTAAACAAATTTTCCTAATCTTTCTGTTCAAGCGCCATCTAC” was 0.705. To “GATGATTGTTCTCCCAGCTGATGAATTTAACGTTTCGAGTAAACAAATTTTCCTAATCTTTCTGTTCAAGCGCCATCTAC” belongs 0.784; to “GATGATTGTTCTCCCAGCTGATGAATTCCTTACGTCGAGTAAACAAATTTTCCTAATCTTTCTGTTCAAGCGCCATCTAC”, 0.256; to “GATGATTGTTCTCCCAGCTGATGAATTAGGGATTTCGAGTAAACAAATTTTCCTAATCTTTCTGTTCAAGCGCCATCTAC”, 0.393.

Take “GATGATTGTTCTCCCAGCTGATGAATTACCCCAATCGAGTAAACAAATTTTCCTAATCTTTCTGTTCAAGCGCCATCTAC”: the binding signal (RPM ratio (pull-down/input)) amounted to 0.275. The value for “GATGATTGTTCTCCCAGCTGATGAATTTATACTGTCGAGTAAACAAATTTTCCTAATCTTTCTGTTCAAGCGCCATCTAC” was 0.843; that for “GATGATTGTTCTCCCAGCTGATGAATTAAGGAATTCGAGTAAACAAATTTTCCTAATCTTTCTGTTCAAGCGCCATCTAC” was 0.681. Turning to “GATGATTGTTCTCCCAGCTGATGAATTTCGTGGCTCGAGTAAACAAATTTTCCTAATCTTTCTGTTCAAGCGCCATCTAC”, the binding signal (RPM ratio (pull-down/input)) is 0.544. To “GATGATTGTTCTCCCAGCTGATGAATTCGGGTGGTCGAGTAAACAAATTTTCCTAATCTTTCTGTTCAAGCGCCATCTAC” belongs 0.486; to “GATGATTGTTCTCCCAGCTGATGAATTTTCGACTTCGAGTAAACAAATTTTCCTAATCTTTCTGTTCAAGCGCCATCTAC”, 0.478; to “GATGATTGTTCTCCCAGCTGATGAATTTCGCTGGTCGAGTAAACAAATTTTCCTAATCTTTCTGTTCAAGCGCCATCTAC”, 0.645. For “GATGATTGTTCTCCCAGCTGATGAATTGTGTCGGTCGAGTAAACAAATTTTCCTAATCTTTCTGTTCAAGCGCCATCTAC”, the binding signal (RPM ratio (pull-down/input)) was 0.899.

Consider “GATGATTGTTCTCCCAGCTGATGAATTGTCAGACTCGAGTAAACAAATTTTCCTAATCTTTCTGTTCAAGCGCCATCTAC”, for which the binding signal (RPM ratio (pull-down/input)) was found to be 0.272.

In the case of “GATGATTGTTCTCCCAGCTGATGAATTGACTGCTTCGAGTAAACAAATTTTCCTAATCTTTCTGTTCAAGCGCCATCTAC”, the binding signal (RPM ratio (pull-down/input)) was found to be 0.439.

Regarding “GATGATTGTTCTCCCAGCTGATGAATTGGGGTGGTCGAGTAAACAAATTTTCCTAATCTTTCTGTTCAAGCGCCATCTAC”, the binding signal (RPM ratio (pull-down/input)) stood at 0.452. To “GATGATTGTTCTCCCAGCTGATGAATTCATGTATTCGAGTAAACAAATTTTCCTAATCTTTCTGTTCAAGCGCCATCTAC” belongs 1.88; to “GATGATTGTTCTCCCAGCTGATGAATTGTATTTGTCGAGTAAACAAATTTTCCTAATCTTTCTGTTCAAGCGCCATCTAC”, 6.43.

Turning to “GATGATTGTTCTCCCAGCTGATGAATTAGCGCATTCGAGTAAACAAATTTTCCTAATCTTTCTGTTCAAGCGCCATCTAC”, the binding signal (RPM ratio (pull-down/input)) was found to be 7.23. As to “GATGATTGTTCTCCCAGCTGATGAATTTCCGAACTCGAGTAAACAAATTTTCCTAATCTTTCTGTTCAAGCGCCATCTAC”, the binding signal (RPM ratio (pull-down/input)) worked out at 0.207. To “GATGATTGTTCTCCCAGCTGATGAATTCTTCTCTTCGAGTAAACAAATTTTCCTAATCTTTCTGTTCAAGCGCCATCTAC” belongs 0.187; to “GATGATTGTTCTCCCAGCTGATGAATTTTCAATGTCGAGTAAACAAATTTTCCTAATCTTTCTGTTCAAGCGCCATCTAC”, 0.335; to “GATGATTGTTCTCCCAGCTGATGAATTCAAGTGATCGAGTAAACAAATTTTCCTAATCTTTCTGTTCAAGCGCCATCTAC”, 0.376.

In the case of “GATGATTGTTCTCCCAGCTGATGAATTACTATCCTCGAGTAAACAAATTTTCCTAATCTTTCTGTTCAAGCGCCATCTAC”, the binding signal (RPM ratio (pull-down/input)) came out at 0.379.

On to “GATGATTGTTCTCCCAGCTGATGAATTCCACCCGTCGAGTAAACAAATTTTCCTAATCTTTCTGTTCAAGCGCCATCTAC”, for which the binding signal (RPM ratio (pull-down/input)) is 0.242. Take “GATGATTGTTCTCCCAGCTGATGAATTTCAGTTTTCGAGTAAACAAATTTTCCTAATCTTTCTGTTCAAGCGCCATCTAC”: the binding signal (RPM ratio (pull-down/input)) was found to be 0.522. For “GATGATTGTTCTCCCAGCTGATGAATTACAACACTCGAGTAAACAAATTTTCCTAATCTTTCTGTTCAAGCGCCATCTAC”, the binding signal (RPM ratio (pull-down/input)) amounted to 1.72. Turning to “GATGATTGTTCTCCCAGCTGATGAATTTAAACCCTCGAGTAAACAAATTTTCCTAATCTTTCTGTTCAAGCGCCATCTAC”, the binding signal (RPM ratio (pull-down/input)) was determined as 0.268. On to “GATGATTGTTCTCCCAGCTGATGAATTTTGTGGATCGAGTAAACAAATTTTCCTAATCTTTCTGTTCAAGCGCCATCTAC”, for which the binding signal (RPM ratio (pull-down/input)) turned out to be 2.73.

As for “GATGATTGTTCTCCCAGCTGATGAATTATATATGTCGAGTAAACAAATTTTCCTAATCTTTCTGTTCAAGCGCCATCTAC”, the binding signal (RPM ratio (pull-down/input)) stood at 1.27.

Regarding “GATGATTGTTCTCCCAGCTGATGAATTGAATTGATCGAGTAAACAAATTTTCCTAATCTTTCTGTTCAAGCGCCATCTAC”, the binding signal (RPM ratio (pull-down/input)) was 0.917. For the sequence “GATGATTGTTCTCCCAGCTGATGAATTGCGATAATCGAGTAAACAAATTTTCCTAATCTTTCTGTTCAAGCGCCATCTAC”, the binding signal (RPM ratio (pull-down/input)) was found to be 0.749. For the sequence “GATGATTGTTCTCCCAGCTGATGAATTACGGAAATCGAGTAAACAAATTTTCCTAATCTTTCTGTTCAAGCGCCATCTAC”, the binding signal (RPM ratio (pull-down/input)) amounted to 0.328. Turning to “GATGATTGTTCTCCCAGCTGATGAATTACCGCACTCGAGTAAACAAATTTTCCTAATCTTTCTGTTCAAGCGCCATCTAC”, the binding signal (RPM ratio (pull-down/input)) amounted to 0.569. For “GATGATTGTTCTCCCAGCTGATGAATTGACGATTTCGAGTAAACAAATTTTCCTAATCTTTCTGTTCAAGCGCCATCTAC”, the binding signal (RPM ratio (pull-down/input)) amounted to 0.415. Take “GATGATTGTTCTCCCAGCTGATGAATTTACCCGCTCGAGTAAACAAATTTTCCTAATCTTTCTGTTCAAGCGCCATCTAC”: the binding signal (RPM ratio (pull-down/input)) was determined as 0.306. The value for “GATGATTGTTCTCCCAGCTGATGAATTTCGAGGATCGAGTAAACAAATTTTCCTAATCTTTCTGTTCAAGCGCCATCTAC” was 0.273.

With “GATGATTGTTCTCCCAGCTGATGAATTGAGGACGTCGAGTAAACAAATTTTCCTAATCTTTCTGTTCAAGCGCCATCTAC”, the binding signal (RPM ratio (pull-down/input)) amounted to 0.248. “GATGATTGTTCTCCCAGCTGATGAATTTCTCCGGTCGAGTAAACAAATTTTCCTAATCTTTCTGTTCAAGCGCCATCTAC”: the binding signal (RPM ratio (pull-down/input)) is 0.153.

For the sequence “GATGATTGTTCTCCCAGCTGATGAATTTAGGGACTCGAGTAAACAAATTTTCCTAATCTTTCTGTTCAAGCGCCATCTAC”, the binding signal (RPM ratio (pull-down/input)) was 0.524. As to “GATGATTGTTCTCCCAGCTGATGAATTATTCATCTCGAGTAAACAAATTTTCCTAATCTTTCTGTTCAAGCGCCATCTAC”, the binding signal (RPM ratio (pull-down/input)) came out at 0.399. As to “GATGATTGTTCTCCCAGCTGATGAATTAGCGAAGTCGAGTAAACAAATTTTCCTAATCTTTCTGTTCAAGCGCCATCTAC”, the binding signal (RPM ratio (pull-down/input)) came to 0.227. The value for “GATGATTGTTCTCCCAGCTGATGAATTAACATTATCGAGTAAACAAATTTTCCTAATCTTTCTGTTCAAGCGCCATCTAC” was 0.644. As for “GATGATTGTTCTCCCAGCTGATGAATTTTCCTACTCGAGTAAACAAATTTTCCTAATCTTTCTGTTCAAGCGCCATCTAC”, the binding signal (RPM ratio (pull-down/input)) is 0.244. For “GATGATTGTTCTCCCAGCTGATGAATTACTGTGTTCGAGTAAACAAATTTTCCTAATCTTTCTGTTCAAGCGCCATCTAC”, the binding signal (RPM ratio (pull-down/input)) was determined as 0.701.

“GATGATTGTTCTCCCAGCTGATGAATTGGGTGGATCGAGTAAACAAATTTTCCTAATCTTTCTGTTCAAGCGCCATCTAC”: the binding signal (RPM ratio (pull-down/input)) came out at 0.423. “GATGATTGTTCTCCCAGCTGATGAATTTTATATGTCGAGTAAACAAATTTTCCTAATCTTTCTGTTCAAGCGCCATCTAC”: the binding signal (RPM ratio (pull-down/input)) was 1.35.

For “GATGATTGTTCTCCCAGCTGATGAATTGCCGAGCTCGAGTAAACAAATTTTCCTAATCTTTCTGTTCAAGCGCCATCTAC”, the binding signal (RPM ratio (pull-down/input)) was 0.36. For the sequence “GATGATTGTTCTCCCAGCTGATGAATTTGAGATTTCGAGTAAACAAATTTTCCTAATCTTTCTGTTCAAGCGCCATCTAC”, the binding signal (RPM ratio (pull-down/input)) turned out to be 0.531. With “GATGATTGTTCTCCCAGCTGATGAATTCCCGTCCTCGAGTAAACAAATTTTCCTAATCTTTCTGTTCAAGCGCCATCTAC”, the binding signal (RPM ratio (pull-down/input)) came out at 0.283. In the case of “GATGATTGTTCTCCCAGCTGATGAATTAATGAGCTCGAGTAAACAAATTTTCCTAATCTTTCTGTTCAAGCGCCATCTAC”, the binding signal (RPM ratio (pull-down/input)) is 0.416. As for “GATGATTGTTCTCCCAGCTGATGAATTCTCCTTCTCGAGTAAACAAATTTTCCTAATCTTTCTGTTCAAGCGCCATCTAC”, the binding signal (RPM ratio (pull-down/input)) worked out at 0.284.
